Switch fluorescence ratio data for 79 sequences are collected here from the supplement of paper PMC10126150.

Values marked as one replicate rest on one cluster of the flow cell; about a third of the high ones do not repeat.
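Note: ATP exposure 15 min at 22 °C before imaging.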

The subject of this series is ATP. Put plainly: switch fluorescence ratio, 500 uM ATP over buffer (Cy3 cluster intensity, sum of 5 cycles each) (fold (ratio)); higher = stronger signal-on switching upon ATP binding; sequences stand for … in TCGTCGGCAGCGTCAGATGTGTATAAGAGACAGTTTTTTTTTTTTTTTTTTTTTTTTT…TC. As to conditions: aptamer strand: ATP DNA aptamer (quencher-CACCTGGGGGAGTATTGCGGAGGAAGG + anchor), 100 nM annealed; ATP concentration: 500 uM; one replicate. The method, boiled down: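 Clusters carrying Cy3-labelled switching strands on a modified Illumina MiSeq flow-cell were annealed to 100 nM quencher-labelled ATP aptamer and imaged in selection buffer. They were imaged again after 15 min with 500 uM ATP at 22 °C, over five buffer/ATP cycles with NaOH stripping and re-annealing in between. For each cluster, the fluorescence ratio is the summed Cy3 intensity of the target cycles divided by that of the buffer cycles, averaged per switch-domain sequence. Clusters outside 100-1000 RFU were left out.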
For the sequence ACCGTCCGCG, the switch fluorescence ratio was 1.46.

Regarding ACTCTAGCTG, the switch fluorescence ratio came out at 1.2. For CAAGAATGTT the value was 0.958; for GAGTATTATG, 1.03; for TTGACTTTGT, 1.07. With ATGATTCAT, the switch fluorescence ratio was determined as 0.984.

In the case of CGCATTGATT, the switch fluorescence ratio is 1.03. For AACATCATCG the value was 1.14; for ATATTTAGTG, 0.963; for ACTGGGCGGG, 1. To TGATCGGGTC belongs 1.05; to AACCCCGTCA, 0.991; to GGATTTTCTT, 0.994. For AGTGGGGTAG the value was 0.973. Consider TTAATGTTAG, for which the switch fluorescence ratio was 1.02.

In the case of CTTGTGACGG, the switch fluorescence ratio amounted to 1.02.

For the sequence TCTAGTCTTT, the switch fluorescence ratio was 1. For GTAACTCGTG the value was 0.986. To AAAAACATGT belongs 0.99; to GCAGCGAATT, 1.12. For the sequence TCGTCCCTG, the switch fluorescence ratio was determined as 1.04. With GAATCGAGGG, the switch fluorescence ratio was 0.975. To CAAGGACGGT belongs 1.03; to AAATATTAGA, 1.02; to AAAGTGGTCC, 1.05. For CCGGGCCTTT the value was 0.991. For GCAACGGGTG the value was 1.78; for CAGGACATGC, 1.15; for TCGGGCCCCA, 1.02. AGACACGA: the switch fluorescence ratio amounted to 1.03. For the sequence GACATTACAA, the switch fluorescence ratio was 1.2. For TGCTGGATTG the value was 1.02; for CTAGGATGCA, 0.969. Consider CAGCGAAATA, for which the switch fluorescence ratio worked out at 1.11.

As to TGCGTTTCAT, the switch fluorescence ratio came to 1.01. Consider TCCCTGTGGT, for which the switch fluorescence ratio was 1.02. For AGGGGAAAT the value was 1.36; for ATTTTAGAGG, 0.997.

Consider ACTTAATTCC, for which the switch fluorescence ratio amounted to 1.12.

In the case of ATGAGGGCGA, the switch fluorescence ratio came out at 0.988. On to CTCAGAAATG, for which the switch fluorescence ratio was found to be 1.09. With CCCATGGGC, the switch fluorescence ratio is 1.03.

As to TTGACATTT, the switch fluorescence ratio stood at 1.02. For GCATAGTCGG, the switch fluorescence ratio was found to be 1.02. For AGGGTGAGAA, the switch fluorescence ratio was 0.963. GAAGTCTTGT: the switch fluorescence ratio was 0.957. In the case of GTGGGAAGAT, the switch fluorescence ratio came out at 0.96. Take GGACTCTTT: the switch fluorescence ratio came out at 0.994.

In the case of ATGGATATAA, the switch fluorescence ratio was determined as 0.987.

With TCAACTCAGG, the switch fluorescence ratio came to 1.04. For CAACAGCTGT the value was 0.988; for CGTTAGGATC, 0.981; for CGCCGGCAAT, 3.97. For CGAAAGCTGG the value was 0.978; for TAGGGTCACA, 1.02; for AGTGCATTAG, 1.04. To GCAGTAGATC belongs 1.03; to GCACCAGATT, 0.993; to TGGTATCAT, 0.973. Regarding ACGTATACGA, the switch fluorescence ratio is 1.1. For TAGCCATAAA the value was 0.981.

GGATCTATAT: the switch fluorescence ratio was 0.976. As for TAGCTCGCCA, the switch fluorescence ratio was 0.999. For GCAACCGAAT the value was 1.05; for GGGGACGGAA, 1.12. As for GCCGGGGACT, the switch fluorescence ratio is 0.98. Consider TGTGAGGTGA, for which the switch fluorescence ratio worked out at 1.02. For GATTCATTA the value was 1.01; for TATACTAGGC, 1.09; for ATGGCGCGCC, 1.01. To CTAGCACACT belongs 1.17.

Consider GTTATCGACC, for which the switch fluorescence ratio is 1.02. For CCTGGCTCGG the value was 1.02; for CAAGGGTGCG, 1.01. With CGGCGGAATG, the switch fluorescence ratio was 1.08. To AAAACTGATA belongs 0.995; to ATTAGTTGGT, 0.992; to CGGACAAAGG, 0.996.

With GTTATTACCG, the switch fluorescence ratio was found to be 0.958.
